# The supplement of paper PMC8728848
# The list shows a part of the results.
# B1: LCA (Lens culinaris), P02870 (protein)
# chain: MASLQTQMISFYLIFLSILLTTIFFFKVNSTETTSFSITKFSPDQKNLIFQGDGYTTKGKLTLTKAVKSTVGRALYSTPIHIWDRDTGNVANFVTSFTFVIDAPSSYNVADEFTFFIAPVDTKPQTGGGYLGVFNSKEYDKTSQTVAVEFDTFYNAAWDPSNKERHIGIDVNSIKSVNTKSWNLQNGERANVVIAFNAATNVLTVTLTYPNSLEEENVTSYTLNEVVPLKDVVPEWVRIGFSATTGAEFAAHEVHSWSFHSELGGTSSSKQAADA
# Tests used:
# Assay in all cases: glycan array binding signal (z-score within array); higher = stronger binding
# Details in all cases: glycan notation: IUPAC condensed, linker removed
# [1] = biological target: GlcNAc(b1-3)Gal(b1-4)GlcNAc(b1-6)[GlcNAc(b1-3)]Gal(b1-4)GlcNAc
# In short: (§1)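 The Consortium for Functional Glycomics database supplied 3228 glycan arrays, of which those lacking an available protein sequence were dropped. The binding signal, a within-array Z-score, was averaged across arrays of the same protein sequence and across linkers. Negative scores can be read as non-binding.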
# GlcNAc(b1-3)GalNAc = biological target: GlcNAc(b1-3)GalNAc
# In short: as §1
# GlcNAc(b1-3)Man = biological target: GlcNAc(b1-3)Man
# In short: as §1
# [2] = biological target: GlcNAc(b1-3)[GlcNAc(b1-4)][GlcNAc(b1-6)]GlcNAc
# In short: as §1
# [3] = biological target: GlcNAc(b1-3)[GlcNAc(b1-6)]Gal(b1-4)GlcNAc
# In short: as §1
# [4] = biological target: GlcNAc(b1-3)[GlcNAc(b1-6)]GalNAc
# In short: as §1
# [5] = biological target: GlcNAc(b1-3)[GlcNAc(b1-6)]GlcNAc(b1-4)GlcNAc
# In short: as §1
# [6] = biological target: GlcNAc(b1-4)Gal(b1-4)GlcNAc
# In short: as §1
# GlcNAc(b1-4)GlcNAc = biological target: GlcNAc(b1-4)GlcNAc
# In short: as §1
# [7] = biological target: GlcNAc(b1-4)GlcNAc(b1-4)GlcNAc
# In short: as §1
# [8] = biological target: GlcNAc(b1-4)GlcNAc(b1-4)GlcNAc(b1-4)GlcNAc(b1-4)GlcNAc
# In short: as §1
# [9] = biological target: GlcNAc(b1-4)GlcNAc(b1-4)GlcNAc(b1-4)GlcNAc(b1-4)GlcNAc(b1-4)GlcNAc
# In short: as §1
# [10] = biological target: GlcNAc(b1-4)[GlcNAc(b1-6)]GalNAc
# In short: as §1
# [11] = biological target: GlcNAc(b1-6)Gal(b1-4)GlcNAc
# In short: as §1
# GlcNAc(b1-6)GalNAc = biological target: GlcNAc(b1-6)GalNAc
# In short: as §1
# [12] = biological target: GlcNAc6S(b1-3)Gal(b1-4)GlcNAc
# In short: as §1
# Kdn(a2-3)Gal(b1-3)GalNAc = biological target: Kdn(a2-3)Gal(b1-3)GalNAc
# In short: as §1
# Kdn(a2-3)Gal(b1-3)GlcNAc = biological target: Kdn(a2-3)Gal(b1-3)GlcNAc
# In short: as §1
# Kdn(a2-3)Gal(b1-4)Glc = biological target: Kdn(a2-3)Gal(b1-4)Glc
# In short: as §1
# Kdn(a2-3)Gal(b1-4)GlcNAc = biological target: Kdn(a2-3)Gal(b1-4)GlcNAc
# In short: as §1
# [13] = biological target: Kdn(a2-3)Gal(b1-4)[Fuc(a1-3)]GlcNAc
# In short: as §1
# Kdn(a2-6)Gal(b1-4)GlcNAc = biological target: Kdn(a2-6)Gal(b1-4)GlcNAc
# In short: as §1
# [14] = biological target: Man(a1-2)Man(a1-2)Man(a1-3)Man
# In short: as §1
# [15] = biological target: Man(a1-2)Man(a1-2)Man(a1-6)[Man(a1-3)]Man
# In short: as §1
# Man(a1-2)Man(a1-3)Man = biological target: Man(a1-2)Man(a1-3)Man
# In short: as §1
# [16] = biological target: Man(a1-2)Man(a1-3)[Man(a1-2)Man(a1-6)]Man
# In short: as §1
# [17] = biological target: Man(a1-2)Man(a1-3)[Man(a1-2)Man(a1-6)]Man(a1-6)[Man(a1-2)Man(a1-2)Man(a1-3)]Man
# In short: as §1
# [18] = biological target: Man(a1-2)Man(a1-3)[Man(a1-2)Man(a1-6)]Man(a1-6)[Man(a1-2)Man(a1-2)Man(a1-3)]Man(b1-4)GlcNAc(b1-4)GlcNAc
# In short: as §1
# [19] = biological target: Man(a1-2)Man(a1-3)[Man(a1-6)]Man(a1-6)[Man(a1-2)Man(a1-3)]Man(b1-4)GlcNAc(b1-4)GlcNAc
# In short: as §1
# [20] = biological target: Man(a1-2)Man(a1-6)[Man(a1-3)]Man(a1-6)[Man(a1-2)Man(a1-2)Man(a1-3)]Man
# In short: as §1
# [21] = biological target: Man(a1-2)Man(a1-6)[Man(a1-3)]Man(a1-6)[Man(a1-2)Man(a1-2)Man(a1-3)]Man(b1-4)GlcNAc(b1-4)GlcNAc
# In short: as §1
# Man(a1-3)[Man(a1-6)]Man = biological target: Man(a1-3)[Man(a1-6)]Man
# In short: as §1
# [22] = biological target: Man(a1-3)[Man(a1-6)]Man(a1-6)[Man(a1-2)Man(a1-3)]Man(b1-4)GlcNAc(b1-4)GlcNAc
# In short: as §1
# [23] = biological target: Man(a1-3)[Man(a1-6)]Man(a1-6)[Man(a1-3)]Man
# In short: as §1
# [24] = biological target: Man(a1-3)[Man(a1-6)]Man(a1-6)[Man(a1-3)]Man(b1-4)GlcNAc(b1-4)GlcNAc
# In short: as §1
# [25] = biological target: Man(a1-3)[Man(a1-6)]Man(b1-4)GlcNAc(b1-4)GlcNAc
# In short: as §1
# [26] = biological target: Man(a1-3)[Man(a1-6)]Man(b1-4)GlcNAc(b1-4)[Fuc(a1-6)]GlcNAc
# In short: as §1
# Man(a1-6)Man = biological target: Man(a1-6)Man
# In short: as §1
# Man(b1-4)GlcNAc = biological target: Man(b1-4)GlcNAc
# In short: as §1
# MurNAc(b1-4)GlcNAc = biological target: MurNAc(b1-4)GlcNAc
# In short: as §1
# Neu5Ac(a2-3)Gal = biological target: Neu5Ac(a2-3)Gal
# In short: as §1
# [27] = biological target: Neu5Ac(a2-3)Gal(b1-3)GalNAc
# In short: as §1
# [28] = biological target: Neu5Ac(a2-3)Gal(b1-3)GalNAc(b1-3)Gal(a1-4)Gal(b1-4)Glc
# In short: as §1
# [29] = biological target: Neu5Ac(a2-3)Gal(b1-3)GalNAc(b1-3)Gal(b1-4)GlcNAc
# In short: as §1
# [30] = biological target: Neu5Ac(a2-3)Gal(b1-3)GalNAc(b1-4)[Neu5Ac(a2-3)]Gal(b1-4)Glc
# In short: as §1
binder,measurement,setting,value
B1,glycan array binding signal (z-score),[1],-0.24
same,glycan array binding signal (z-score),GlcNAc(b1-3)GalNAc,-0.209
same,glycan array binding signal (z-score),GlcNAc(b1-3)Man,-0.218
same,glycan array binding signal (z-score),[2],-0.2
same,glycan array binding signal (z-score),[3],-0.223
same,glycan array binding signal (z-score),[4],-0.23
same,glycan array binding signal (z-score),[5],-0.223
same,glycan array binding signal (z-score),[6],-0.264
same,glycan array binding signal (z-score),GlcNAc(b1-4)GlcNAc,-0.232
same,glycan array binding signal (z-score),[7],-0.184
same,glycan array binding signal (z-score),[8],-0.225
same,glycan array binding signal (z-score),[9],-0.203
same,glycan array binding signal (z-score),[10],-0.223
same,glycan array binding signal (z-score),[11],-0.224
same,glycan array binding signal (z-score),GlcNAc(b1-6)GalNAc,-0.212
same,glycan array binding signal (z-score),[12],-0.217
same,glycan array binding signal (z-score),Kdn(a2-3)Gal(b1-3)GalNAc,-0.225
same,glycan array binding signal (z-score),Kdn(a2-3)Gal(b1-3)GlcNAc,-0.215
same,glycan array binding signal (z-score),Kdn(a2-3)Gal(b1-4)Glc,-0.223
same,glycan array binding signal (z-score),Kdn(a2-3)Gal(b1-4)GlcNAc,-0.198
same,glycan array binding signal (z-score),[13],-0.228
same,glycan array binding signal (z-score),Kdn(a2-6)Gal(b1-4)GlcNAc,-0.174
same,glycan array binding signal (z-score),[14],1.41
same,glycan array binding signal (z-score),[15],2.06
same,glycan array binding signal (z-score),Man(a1-2)Man(a1-3)Man,1.09
same,glycan array binding signal (z-score),[16],1.52
same,glycan array binding signal (z-score),[17],1.19
same,glycan array binding signal (z-score),[18],1.88
same,glycan array binding signal (z-score),[19],2.09
same,glycan array binding signal (z-score),[20],0.773
same,glycan array binding signal (z-score),[21],2.81
same,glycan array binding signal (z-score),Man(a1-3)[Man(a1-6)]Man,-0.08
same,glycan array binding signal (z-score),[22],2.82
same,glycan array binding signal (z-score),[23],-0.213
same,glycan array binding signal (z-score),[24],0.11
same,glycan array binding signal (z-score),[25],0.57
same,glycan array binding signal (z-score),[26],6.07
same,glycan array binding signal (z-score),Man(a1-6)Man,-0.192
same,glycan array binding signal (z-score),Man(b1-4)GlcNAc,-0.225
same,glycan array binding signal (z-score),MurNAc(b1-4)GlcNAc,-0.251
same,glycan array binding signal (z-score),Neu5Ac(a2-3)Gal,-0.194
same,glycan array binding signal (z-score),[27],-0.238
same,glycan array binding signal (z-score),[28],-0.157
same,glycan array binding signal (z-score),[29],-0.208
same,glycan array binding signal (z-score),[30],-0.227
